Test results taken from PubChem BioAssay AID1345083 (National Center for Advancing Translational Sciences (NCATS), 2018).
Where “and” joins values, the source holds several entries; their conditions need not be identical. Equal entries are not always repeated. Screen size: about 94,000 compounds; about 6,200 (6.6%) were called active. Inconclusive results, whose numbers are uncertain, are shown with a selection of clear calls. The call rests on the fitted dose curve; in most records, active means well fitted inhibition curve with a large enough effect; inconclusive means small, poorly fitted or top-dose-only effect; inactive means flat fitted curve, though single readings scatter. A potency beside an inconclusive call is a rough fit, not a confirmed value.
Potency means the concentration at half of the fitted maximal effect; tags describe the fitted curve by direction and shape.

Assay: Cytotoxic Profiling in HEK 293 Cell Line of Diverse Libraries Using Quantitative High-Throughput Screening; further: nearly all actives have a fitted effect of over 60% in size
Conditions: HEK 293 viability, ATP luminescence (CellTiter-Glo), 48-72 h; series mostly up to 115 µM
Method in brief: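 qHTS cytotoxicity; HEK 293, 250 cells/well; compound pinned; 48 or 72 hr, 37 degree Celsius, 5% CO2, 95% humidity; CellTiter-Glo, 10 min RT; luminescence (ATP).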
In the case of `COc1cccc(Nc2ccnc(N3CCN([S+](=O)([O-])c4c(C)noc4C)CC3)n2)c1`, the Potency is reported as “inactive”. In the case of `Cc1ccc(NC(=O)Nc2cccc(-c3ccc(N4CCOCC4)nn3)c2)cc1`, the Potency is reported as inconclusive: 89.1 µM [inhibitor, single point]. In the case of `CC(C)n1cc2cc(C(=O)NCCc3cccs3)sc2c1`, the Potency is reported as inconclusive: 79.4 µM [inhibitor, single point]. For `Cn1cccc1CN1CCC2(CC1)CC(=O)N(c1ccccc1)c1ccccc1O2`, the Potency was active: 22.4 µM. For `Cc1c(CC(=O)NC2CCOC2=O)c2c(n1Cc1ccccc1F)CCCC2=O` (configuration not stated), the Potency was inconclusive: 17.8 µM [inhibitor, full curve, poor fit]. With `O=C(Cc1cccc(Cl)c1)NCc1ccnc2[nH]ccc12` the Potency was inconclusive: 63.1 µM [inhibitor, full curve]. With `Cc1noc(C)c1CCC(=O)NCc1cccnc1N1CCOCC1` the Potency was “inactive”. In the case of `COc1ccc(OCc2nc(C)c(CCO)c(=O)n2CC(=O)NCc2ccc(F)cc2)cc1`, the Potency is reported as “inactive”. In the case of `CCc1ccccc1NC(=O)Cn1c(N2CCC(C)CC2)nc(C)cc1=O`, the Potency is reported as inconclusive: 39.8 µM [inhibitor, full curve, poor fit]. In the case of `COc1ccc(-n2nc(C3CCN(Cc4cccc(OC)c4)CC3)[nH]c2=O)cc1`, the Potency is reported as inconclusive: 50.1 µM [inhibitor, partial curve, poor fit]. For `CCOc1cccc(CN2CCCC(COc3ccccc3C(=O)N3CCCC3)C2)c1` (configuration not stated), the Potency was inconclusive: 28.2 µM [inhibitor, full curve]. With `COC[C@@H]1CN(Cc2cnn(C(C)C)c2)C[C@H]1C(=O)NC1CC1` the Potency was “inactive”. With `COc1ccc(CCN2C(=O)O[C@@H]3CN(c4nc(OC)cc(OC)n4)C[C@@H]32)cc1` the Potency was “inactive”. In the case of `COc1ccc(-c2nc3c(c(=O)[nH]2)CCN(C(=O)Nc2ccccc2Cl)C3)cc1`, the Potency is reported as inconclusive: 17.8 µM [inhibitor, full curve, poor fit]. With `O=C(c1ccc2nc(-c3ccccc3)cn2c1)N1CCOC(C(F)(F)F)C1` (configuration not stated) the Potency was “inactive”. For `O=C1NCCOCCCN(S(=O)(=O)c2cccs2)[C@H]2CCCC[C@@H]12`, the Potency was inconclusive: 12.6 µM [inhibitor, partial curve, poor fit]. For `O=c1n(-c2ccc(C(F)(F)F)cc2)nc2n1CCN(Cc1ccc(F)cc1)C2`, the Potency was inconclusive: 56.2 µM [inhibitor, partial curve, poor fit]. With `O=C1N(Cc2cccc(F)c2F)CCCC12CCN(c1nc3ccccc3o1)C2` (configuration not stated) the Potency was inconclusive: 50.1 µM [inhibitor, partial curve, poor fit]. For `O=C(NCc1cccnc1Oc1ccccc1F)c1cnc2ccccn12`, the Potency was inconclusive: 20 µM [inhibitor, full curve]. With `CCCNC(=O)N1CCCC(c2nc(CCOc3ccc(F)cc3)no2)C1` (configuration not stated) the Potency was inconclusive: 79.4 µM [inhibitor, partial curve, poor fit]. For `O=C(c1ccccc1F)N1CCC2(C1)C(=O)N(c1ccccc1)c1ccccc12` (configuration not stated), the Potency was inconclusive: 56.2 µM [inhibitor, partial curve, poor fit]. For `CSc1ccc(-c2cccc(C(=O)NCCNC(=O)NC(C)C)c2)cc1`, the Potency was inconclusive: 50.1 µM [inhibitor, partial curve, poor fit]. For `COc1ccccc1-c1cccc(CN2CCC(NC(=O)Cc3cccc(Cl)c3)CC2)c1`, the Potency was inconclusive: 31.6 µM [inhibitor, full curve, poor fit]. In the case of `CCC(CC)C(=O)N1CCC(N2C(=O)N(Cc3cccnc3)CC23CCOC3)CC1` (configuration not stated), the Potency is reported as “inactive”. With `CCNC(=O)N1CC[C@@H](CC(=O)O)[C@@H](CC2=NCCc3ccc(C(C)(C)C)cc32)C1` the Potency was “inactive”. With `COc1ccccc1C(=O)NC1CCN(c2ccc3nnc(C4CC4)n3n2)C1` (configuration not stated) the Potency was inconclusive: 100 µM [inhibitor, single point]. For `Cc1cnc(C2CCC2)n1CC1CCN(C(=O)c2ccncc2)C1` (configuration not stated), the Potency was “inactive”. For `CCCNC(=O)C1COC2(CCN(C(=O)C3CCC3)CC2)N1C(=O)c1ccc(OC)cc1` (configuration not stated), the Potency was inconclusive: 56.2 µM [inhibitor, partial curve, poor fit]. In the case of `COc1ccc(-c2ccc(C(=O)N3CCC(NC(=O)NC4CCCC4)CC3)cc2)nn1`, the Potency is reported as inconclusive: 39.8 µM [inhibitor, single point]. In the case of `CCOC(=O)[C@@H]1CN(C(=O)CCc2ccccc2)[C@H]2c3ccccc3O[C@@H]12`, the Potency is reported as inconclusive: 50.1 µM [inhibitor, partial curve, poor fit]. In the case of `O=C(NCCOc1ccccc1)c1cnc2n1CCN(Cc1cccs1)CC2`, the Potency is reported as inconclusive: 89.1 µM [inhibitor, partial curve, poor fit]. In the case of `COc1cccc(CNC(=O)[C@@]23CCCC[C@H]2N(CCc2ccccc2)C(=O)CC3)c1OC`, the Potency is reported as inconclusive: 89.1 µM [inhibitor, single point]. In the case of `CN(C)C(=O)N1CCC2(C1)C(=O)N(CCc1ccccc1)c1ccccc12` (configuration not stated), the Potency is reported as inconclusive: 56.2 µM [inhibitor, partial curve, poor fit]. With `CS(=O)(=O)c1ccc(CNC[C@H]2COCc3nc4cc(F)ccc4n32)cc1` the Potency was inconclusive: 63.1 µM [inhibitor, partial curve, poor fit]. In the case of `COc1ccc(NC(=O)N2CCCC(Cn3cnc4cccnc43)C2)cc1Cl` (configuration not stated), the Potency is reported as inconclusive: 100 µM [inhibitor, single point]. With `O=C(C1CCCN(Cc2cccc(-c3ccsc3)c2)C1)N1CCC(Cc2ccccc2)CC1` (configuration not stated) the Potency was active: 39.8 µM. In the case of `CC(C)(C)C1CCC2(CC1)NC(=O)N(CC(=O)N1CCN(c3ccccc3F)CC1)C2=O` (configuration not stated), the Potency is reported as inconclusive: 89.1 µM [inhibitor, partial curve, poor fit]. With `CC(=O)Nc1ccc(S(=O)(=O)N[C@H]2CO[C@H]3[C@@H]2OC[C@@H]3n2nnnc2-c2ccc3c(c2)OCO3)cc1` the Potency was “inactive”. With `Cc1noc(C)c1[S+](=O)([O-])N1CCC2(C1)C(=O)N(CCc1ccccc1)c1ccccc12` (configuration not stated) the Potency was inconclusive: 35.5 µM [inhibitor, partial curve] and inconclusive: 50.1 µM [inhibitor, partial curve, poor fit]. For `COc1ccc(CN2CC[C@H](c3nc4ccc(C)cc4[nH]3)C2)cc1`, the Potency was active: 79.4 µM. In the case of `Cc1ccc(Nc2ccnc(N3CCC(C(=O)NC(C)C)CC3)n2)cc1`, the Potency is reported as inconclusive: 50.1 µM [inhibitor, partial curve, poor fit]. With `Cc1cc2nc3n(c(=O)c2n1CC(=O)Nc1cccc(C(F)(F)F)c1)CCC3` the Potency was inconclusive: 79.4 µM [inhibitor, partial curve]. In the case of `CC1(c2noc(-c3ccccn3)n2)CCN(C(=O)CCc2nc3ccc(Cl)cc3[nH]2)CC1`, the Potency is reported as active: 50.1 µM. In the case of `O=C(CCc1ccc(CC2CCN(Cc3ccncc3)CC2)cc1)NC1CC1`, the Potency is reported as inconclusive: 89.1 µM [inhibitor, single point]. For `O=C(c1coc(COc2cccc(F)c2)n1)N1CCCCC1c1nccs1` (configuration not stated), the Potency was “inactive”. With `Cc1noc([C@@H]2CN(S(=O)(=O)c3ccc(C#N)cc3)C[C@H]2C(N)=O)n1` the Potency was “inactive”. With `O=C(c1cccnc1)N1CCC2(CCCCO2)CC1` the Potency was inconclusive: 50.1 µM [inhibitor, partial curve, poor fit]. With `CN1CCCC12Cc1ccccc1CN(S(=O)(=O)c1ccccc1)C2` (configuration not stated) the Potency was inconclusive: 79.4 µM [inhibitor, partial curve]. With `COc1ccccc1Nc1ccnc(N2CCCC(C(=O)NC3CCC3)C2)n1` (configuration not stated) the Potency was inconclusive: 10 µM [inhibitor, full curve, poor fit]. For `Cc1cnc(C2CC2)n1C1CCCN(Cc2ccccc2)C1` (configuration not stated), the Potency was inconclusive: 79.4 µM [inhibitor, partial curve, poor fit]. In the case of `O=C(Cn1nc2n(c1=O)CCCC2)Nc1ccc(Br)cc1`, the Potency is reported as inconclusive: 89.1 µM [inhibitor, single point]. In the case of `COC(=O)C1=C(C)N(Cc2ccc(Br)cc2)C(=O)CC1c1ccccc1Cl` (configuration not stated), the Potency is reported as inconclusive: 56.2 µM [inhibitor, partial curve, poor fit]. With `CN(C)c1cccc(C(=O)NCC2CCN(c3cc(-c4ccc(F)cc4)[nH]n3)CC2)c1` the Potency was inconclusive: 70.8 µM [inhibitor, partial curve, poor fit]. In the case of `COc1ccc(-c2noc(CCCC(=O)N3CCCC3c3nc(C4CCOCC4)no3)n2)cc1OC` (configuration not stated), the Potency is reported as “inactive”. In the case of `Cc1cc(NC(=O)c2ccc3c(c2)OCCN(C2CCC2)C3)ccc1F`, the Potency is reported as inconclusive: 63.1 µM [inhibitor, partial curve, poor fit]. With `CCCc1ccc([S+](=O)([O-])N2CCC3(CC2)CNC(=O)C3CO)cc1` (configuration not stated) the Potency was inconclusive: 89.1 µM [inhibitor, single point]. In the case of `COCCOCC(=O)N1CCC2(CC1)C(OC)CN2c1cccc(F)c1` (configuration not stated), the Potency is reported as inconclusive: 89.1 µM [inhibitor, single point]. With `O=C1Nc2ccc(-c3cccc(C(F)(F)F)c3)cc2C(=O)N2CCN(C(=O)NC3CCCCC3)C[C@H]12` the Potency was active: 35.5 µM. In the case of `Cc1ccc(C(=O)N(CC(C)C)CC2CN(C(=O)Nc3cccc(Cl)c3)CCO2)cc1` (configuration not stated), the Potency is reported as active: 39.8 µM. With `O=C(Nc1ccccc1F)N1CCC(CCNC(=O)C2(c3ccccc3)CC2)CC1` the Potency was inconclusive: 35.5 µM [inhibitor, partial curve]. For `CCn1cc(CN2CCC(N3C(=O)C4(CCCC4)C3c3ccccc3)CC2)cn1` (configuration not stated), the Potency was “inactive”. In the case of `COc1cccc(-c2cn3cc(C(=O)Nc4ccc(F)cc4)nc3s2)c1`, the Potency is reported as inconclusive: 89.1 µM [inhibitor, partial curve, poor fit].
